Experimental data from patent US20090123389A1, “Methods for modulating Th17 cell development in the treatment and prevention of cellulite” (priority 2007, published 2009).

Tested on: amino acid response (AAR) pathway
Assay: eIF2α phosphorylation and ATF4 protein in T cells (immunoblot)
Format: cell-based, mouse
Details: tunicamycin 1 μg/ml or 10 nM HF, 4 hours
Method: Whole cell lysates were prepared 4 hours-post TCR activation and immunoblotting was performed with the indicated antibodies. ATF4 protein is indicated by arrowhead. NS—non-specific band.
FIG. 12E is an illustration depicting immunoblot analysis of purified CD4^+ CD25^− T cells activated through the TCR for the indicated times without exogenous cytokines in the presence of either 10 nM MAZ1310 or 10 nM HF as indicated. Whole cells lysates were prepared during the timecourse and immunoblotting was performed.
Cultures were further supplemented with either 10 nM MAZ1310 or 10 nM HF as indicated. Whole cell lysates were generated 4 hours after activation and immunoblotting was performed. Microarray data were generated from triplicate samples and all other data are representative of at least 2 similar experiments.
Western blotting: Whole cell lysates were generated from T cells activated for the indicated times. For STAT3 and Smad2/3 western blots cells were harvested, washed in PBS and lysed in 50 mM Tris, pH 7.4, 0.1% SDS, 1% Triton-×100, 140 mM NaCl, 1 mM EDTA, 1 mM EGTA supplemented with protease inhibitors tablets (Roche—Germany), 1 mM NaF and 1 mM Na3VO4. For eIF2α and ATF4 western blots, cells were harvested as above and lysed in 50 mM Tris, pH 7.4, 2% SDS, 20% glycerol and 2 mM EDTA supplemented with protease and phosphatase inhibitors as above. […]

Compound | eIF2α phosphorylation and ATF4 expression in activated T cells
O=C(CC1NCCCC1O)Cn1cnc2cc(Br)c(Cl)cc2c1=O (racemic) [HF, 7-bromo-6-chloro-3-[3-(3-hydroxy-2-piperidinyl)-2-oxopropyl]-4(3H)-quinazolinone] | inducing eIF2α phosphorylation
tunicamycin | induced eIF2α phosphorylation and ATF4 expression
